Experimental data: patent US20250002588A1 (DIAGONAL THERAPEUTICS, published 2025)

Target: ALK-1/BMPR-2 receptor pair of the PathHunter U2Os dimerization cells (DiscoverX 93-0962C3) (UniProt P37023 22-503; Q13873 27-1038)
Assay: cell-based or functional assay

Sequence of UniProt P37023 (P37023 22-503, chain 1 of 2): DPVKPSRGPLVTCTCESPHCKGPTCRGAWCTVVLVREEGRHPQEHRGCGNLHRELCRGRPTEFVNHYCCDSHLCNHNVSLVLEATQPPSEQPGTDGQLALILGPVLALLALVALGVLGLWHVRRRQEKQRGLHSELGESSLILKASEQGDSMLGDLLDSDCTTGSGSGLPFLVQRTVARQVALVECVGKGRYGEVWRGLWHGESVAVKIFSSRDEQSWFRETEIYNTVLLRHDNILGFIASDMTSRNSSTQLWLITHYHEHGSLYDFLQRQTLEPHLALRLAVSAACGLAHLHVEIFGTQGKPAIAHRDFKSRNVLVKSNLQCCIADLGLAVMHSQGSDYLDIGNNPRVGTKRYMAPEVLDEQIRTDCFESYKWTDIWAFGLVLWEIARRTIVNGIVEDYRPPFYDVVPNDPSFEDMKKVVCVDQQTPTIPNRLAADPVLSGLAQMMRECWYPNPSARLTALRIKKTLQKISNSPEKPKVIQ
Sequence of UniProt P37023 (Q13873 27-1038, chain 2 of 2, further chain): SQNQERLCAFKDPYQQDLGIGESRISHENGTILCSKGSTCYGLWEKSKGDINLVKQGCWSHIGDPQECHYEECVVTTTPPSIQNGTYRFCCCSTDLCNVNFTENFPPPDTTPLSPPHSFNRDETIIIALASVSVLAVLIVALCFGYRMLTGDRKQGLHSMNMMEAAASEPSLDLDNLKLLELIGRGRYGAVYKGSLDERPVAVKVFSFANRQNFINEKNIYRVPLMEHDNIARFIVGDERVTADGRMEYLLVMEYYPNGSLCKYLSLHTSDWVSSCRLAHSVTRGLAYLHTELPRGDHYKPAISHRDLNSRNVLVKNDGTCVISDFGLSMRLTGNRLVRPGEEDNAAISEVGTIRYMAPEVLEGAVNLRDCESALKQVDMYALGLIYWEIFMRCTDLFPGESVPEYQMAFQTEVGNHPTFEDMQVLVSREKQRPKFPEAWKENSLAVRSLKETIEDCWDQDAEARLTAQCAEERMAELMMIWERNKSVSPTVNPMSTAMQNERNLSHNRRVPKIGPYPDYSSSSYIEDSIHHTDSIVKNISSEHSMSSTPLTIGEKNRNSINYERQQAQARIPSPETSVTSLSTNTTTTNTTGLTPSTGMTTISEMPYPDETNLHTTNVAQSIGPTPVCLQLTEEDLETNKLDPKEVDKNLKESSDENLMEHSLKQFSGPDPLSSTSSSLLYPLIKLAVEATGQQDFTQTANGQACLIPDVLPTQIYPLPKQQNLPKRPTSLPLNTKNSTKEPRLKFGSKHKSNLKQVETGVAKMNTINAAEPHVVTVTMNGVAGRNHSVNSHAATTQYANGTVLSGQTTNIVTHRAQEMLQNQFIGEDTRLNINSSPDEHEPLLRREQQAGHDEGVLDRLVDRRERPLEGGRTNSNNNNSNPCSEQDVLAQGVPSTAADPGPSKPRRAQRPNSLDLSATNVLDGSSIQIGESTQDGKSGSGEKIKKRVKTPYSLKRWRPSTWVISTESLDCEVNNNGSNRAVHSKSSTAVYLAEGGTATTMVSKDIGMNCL

B1: DGL284 (bispecific antibody)
chain: [about 120 residues omitted here]EGKSSGSGSESKASQVQLQESGPGLVKPSQTLSLTCTVSGGSISSDDYYWSWIRQTPGKGLEWIGYIYYSGITYYNPSLKSRVTISVDTSKNQFSLKLSSVTAADTAVYYCAREGCNDGVCYNGVFDYWGQGTLVTVSSSGGSGGGGSSGGGGSGGGGSSGGGGDGGGGSGGTQSALTQPASVSGSPGQSITISCTGTSSDVGGYKSVSWYQQHPGKAPKLMIYDVSNRPSGVSDRFSGSKSGNTASLTISGLQAEDEADYYCSSYTSSSSLWVFGGGTKLTVLGEGKSSGSGSESKASQVQLVQSGAEVKKPGSSVKVSCKASGGTFSSYAISWVRQAPGQGLEWMGRIIPILGIANYAQKFQGRVTMTEDTSTDTAYMELSSLRSEDTAVYYCATDLWGVGADWGQGTLVTVSSGSGGGGDGGGGSG[human IgG1 Fc omitted here]
Question: With B1 as the binder, how does the “% Emax BMP9” value read?
Answer: 49%

Question: What about the “EC50” value of the same binder?
Answer: 1 nM

Question: What about the “EMAX (RLU)” value of the same binder?
Answer: 1.3e+06 RLU
